Assay results taken from the supplement of paper PMC10126150.
Values marked as one replicate rest on one cluster of the flow cell; about a third of the high ones do not repeat.

test system: ATP; test: switch fluorescence ratio, 500 uM ATP over buffer (Cy3 cluster intensity, sum of 5 cycles each) (fold (ratio)); higher = stronger signal-on switching upon ATP binding; sequences stand for … in TCGTCGGCAGCGTCAGATGTGTATAAGAGACAGTTTTTTTTTTTTTTTTTTTTTTTTT…TC; details: aptamer strand: ATP DNA aptamer (quencher-CACCTGGGGGAGTATTGCGGAGGAAGG + anchor), 100 nM annealed; ATP concentration: 500 uM; one replicate
Procedure, shortened: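 Five buffer/ATP imaging cycles were run on Cy3-labelled switching-strand clusters on a modified Illumina MiSeq flow-cell, with NaOH stripping and re-annealing between cycles. In each cycle, clusters annealed to 100 nM quencher-labelled ATP aptamer were imaged in selection buffer, then after 15 min with 500 uM ATP at 22 °C. Per cluster, the fluorescence ratio is summed target-cycle over summed buffer-cycle Cy3 intensity, averaged per switch-domain sequence. Only clusters within 100-1000 RFU were kept.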
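Note: ATP exposure 15 min at 22 °C before imaging.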

Question: How did the switch fluorescence ratio turn out when CAGGTATGGC was run?
Answer: 1.02

Question: How did the switch fluorescence ratio turn out when CAGGTCAGAT was run?
Answer: 0.993

Question: Which switch fluorescence ratio does the source give for CAGGTGCTCG here?
Answer: 1.02

Question: How did the switch fluorescence ratio turn out when CAGGTGTGTG was run?
Answer: 1.18

Question: For CAGGTTGCGC, which switch fluorescence ratio is on record?
Answer: 1

Question: For CAGGTTGT, which switch fluorescence ratio is on record?
Answer: 1.02

Question: With CAGGTTTCCA as the sequence, how does the switch fluorescence ratio read?
Answer: 1.01

Question: CAGTAACGCG was tested. Which switch fluorescence ratio did it give?
Answer: 0.885

Question: For CAGTAAGTTT, which switch fluorescence ratio is on record?
Answer: 0.981

Question: CAGTACGTCC was tested. Which switch fluorescence ratio did it give?
Answer: 1.03

Question: For CAGTAGAGT, which switch fluorescence ratio is on record?
Answer: 1.14

Question: Which switch fluorescence ratio does the source give for CAGTAGTCCG here?
Answer: 1.05

Question: Which switch fluorescence ratio does the source give for CAGTATTAAA here?
Answer: 1.02

Question: Which switch fluorescence ratio does the source give for CAGTCACTTA here?
Answer: 1.08

Question: How did the switch fluorescence ratio turn out when CAGTCATAGG was run?
Answer: 1.01

Question: CAGTCGCTAG was tested. Which switch fluorescence ratio did it give?
Answer: 1

Question: How did the switch fluorescence ratio turn out when CAGTCGGCGT was run?
Answer: 1.06

Question: Which switch fluorescence ratio does the source give for CAGTCGTTCC here?
Answer: 1.27

Question: Which switch fluorescence ratio does the source give for CAGTCTATGT here?
Answer: 0.993

Question: How did the switch fluorescence ratio turn out when CAGTCTGCGC was run?
Answer: 1.08

Question: With CAGTCTGGCA as the sequence, how does the switch fluorescence ratio read?
Answer: 1.02

Question: Which switch fluorescence ratio does the source give for CAGTGAAGGA here?
Answer: 1

Question: CAGTGCGAGC was tested. Which switch fluorescence ratio did it give?
Answer: 1.04

Question: How did the switch fluorescence ratio turn out when CAGTGGGCA was run?
Answer: 0.964

Question: CAGTGGTTCT was tested. Which switch fluorescence ratio did it give?
Answer: 0.993

Question: For CAGTGTAGGC, which switch fluorescence ratio is on record?
Answer: 0.997

Question: For CAGTGTTAGT, which switch fluorescence ratio is on record?
Answer: 0.993

Question: CAGTTAGCAA was tested. Which switch fluorescence ratio did it give?
Answer: 4

Question: For CAGTTCCGGA, which switch fluorescence ratio is on record?
Answer: 1.09

Question: How did the switch fluorescence ratio turn out when CAGTTCTATA was run?
Answer: 1.01

Question: How did the switch fluorescence ratio turn out when CAGTTGCAAA was run?
Answer: 0.978

Question: How did the switch fluorescence ratio turn out when CAGTTGCGCG was run?
Answer: 1

Question: How did the switch fluorescence ratio turn out when CAGTTGCTAA was run?
Answer: 1.03

Question: With CAGTTGGTAC as the sequence, how does the switch fluorescence ratio read?
Answer: 1

Question: CATAAATATT was tested. Which switch fluorescence ratio did it give?
Answer: 1.01

Question: For CATAAATTT, which switch fluorescence ratio is on record?
Answer: 0.974

Question: Which switch fluorescence ratio does the source give for CATAACAAAG here?
Answer: 0.975

Question: For CATAAGCA, which switch fluorescence ratio is on record?
Answer: 1.09

Question: For CATAAGGCCG, which switch fluorescence ratio is on record?
Answer: 1.04

Question: CATAATAGCG was tested. Which switch fluorescence ratio did it give?
Answer: 1.03

Question: With CATAATAGG as the sequence, how does the switch fluorescence ratio read?
Answer: 1.02

Question: For CATAATATAA, which switch fluorescence ratio is on record?
Answer: 1.04

Question: CATAATATGG was tested. Which switch fluorescence ratio did it give?
Answer: 0.994

Question: How did the switch fluorescence ratio turn out when CATAATGTG was run?
Answer: 0.957

Question: Which switch fluorescence ratio does the source give for CATAATTTCA here?
Answer: 1

Question: With CATACACGGG as the sequence, how does the switch fluorescence ratio read?
Answer: 1.05

Question: For CATACATGGG, which switch fluorescence ratio is on record?
Answer: 1.05

Question: CATACGAGG was tested. Which switch fluorescence ratio did it give?
Answer: 1.05

Question: Which switch fluorescence ratio does the source give for CATACGGGG here?
Answer: 1.04

Question: For CATACTCTAG, which switch fluorescence ratio is on record?
Answer: 1.07

Question: How did the switch fluorescence ratio turn out when CATACTCTTT was run?
Answer: 1.05

Question: For CATAGAACTT, which switch fluorescence ratio is on record?
Answer: 0.97

Question: Which switch fluorescence ratio does the source give for CATAGAATGA here?
Answer: 0.967

Question: Which switch fluorescence ratio does the source give for CATAGACGAA here?
Answer: 0.97

Question: With CATAGATCAT as the sequence, how does the switch fluorescence ratio read?
Answer: 0.998

Question: With CATAGCTAAA as the sequence, how does the switch fluorescence ratio read?
Answer: 1.03

Question: How did the switch fluorescence ratio turn out when CATAGCTCCG was run?
Answer: 0.943

Question: With CATAGTGTGG as the sequence, how does the switch fluorescence ratio read?
Answer: 1.01

Question: CATAGTTCCG was tested. Which switch fluorescence ratio did it give?
Answer: 0.987

Question: Which switch fluorescence ratio does the source give for CATATAACAT here?
Answer: 1.02

Question: For CATATACCGT, which switch fluorescence ratio is on record?
Answer: 1.03

Question: CATATAGCCG was tested. Which switch fluorescence ratio did it give?
Answer: 0.922

Question: CATATAGTCT was tested. Which switch fluorescence ratio did it give?
Answer: 0.98

Question: CATATAGTG was tested. Which switch fluorescence ratio did it give?
Answer: 0.963

Question: For CATATATATT, which switch fluorescence ratio is on record?
Answer: 1

Question: How did the switch fluorescence ratio turn out when CATATGGGAC was run?
Answer: 1.05

Question: CATATTAATT was tested. Which switch fluorescence ratio did it give?
Answer: 1.02

Question: For CATATTTCAG, which switch fluorescence ratio is on record?
Answer: 1

Question: With CATATTTGAG as the sequence, how does the switch fluorescence ratio read?
Answer: 1.02

Question: CATCAACATG was tested. Which switch fluorescence ratio did it give?
Answer: 1.03

Question: With CATCATGAGG as the sequence, how does the switch fluorescence ratio read?
Answer: 0.986

Question: How did the switch fluorescence ratio turn out when CATCATGGAA was run?
Answer: 1.05

Question: For CATCATTTGG, which switch fluorescence ratio is on record?
Answer: 0.956

Question: Which switch fluorescence ratio does the source give for CATCCAGAAA here?
Answer: 1.2

Question: CATCCAGGGA was tested. Which switch fluorescence ratio did it give?
Answer: 1.05

Question: CATCCATACA was tested. Which switch fluorescence ratio did it give?
Answer: 1.1

Question: How did the switch fluorescence ratio turn out when CATCCATGAG was run?
Answer: 1.01

Question: For CATCCCAGTG, which switch fluorescence ratio is on record?
Answer: 3.04

Question: Which switch fluorescence ratio does the source give for CATCCGAGCG here?
Answer: 1.62

Question: CATCCTCCTC was tested. Which switch fluorescence ratio did it give?
Answer: 1.54

Question: For CATCCTCTCA, which switch fluorescence ratio is on record?
Answer: 1.07

Question: CATCCTTATA was tested. Which switch fluorescence ratio did it give?
Answer: 1.06

Question: For CATCGAAGTC, which switch fluorescence ratio is on record?
Answer: 1.03

Question: For CATCGGAAAT, which switch fluorescence ratio is on record?
Answer: 1.05

Question: With CATCGGACTA as the sequence, how does the switch fluorescence ratio read?
Answer: 1.02
